# Measurements: the BET-seq Pho4 binding data (Le et al. 2018)
# Some of the results follow. The energies were worked out here from pooled read counts, against the library average; single values are noisy.
# Target: T1, Pho4 (S. cerevisiae) (UniProt P07270)
# T1 sequence: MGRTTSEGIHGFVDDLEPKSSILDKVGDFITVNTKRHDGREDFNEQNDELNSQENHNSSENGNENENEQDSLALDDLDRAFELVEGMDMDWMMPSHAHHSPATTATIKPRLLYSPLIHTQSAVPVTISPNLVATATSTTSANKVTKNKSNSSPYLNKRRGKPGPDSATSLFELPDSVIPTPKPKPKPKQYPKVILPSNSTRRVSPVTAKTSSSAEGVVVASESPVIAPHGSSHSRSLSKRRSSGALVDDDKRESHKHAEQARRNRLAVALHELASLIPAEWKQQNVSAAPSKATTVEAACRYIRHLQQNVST
# Experiment: relative binding free energy (BET-seq); higher = weaker binding
# Details: reference: library average
row,Sequence,relative binding free energy [kcal/mol]
1,TTTAGCACGTGTAAGT,0.12
2,TATGCCACGTGGGTGC,-0.27
3,TCTGACACGTGTTAGA,0.21
4,GACTGCACGTGGAAGT,0.25
5,GTGTGCACGTGGAGCG,0.03
6,GCGGGCACGTGAGGTG,0.21
7,TCGTTCACGTGGTTGT,0.22
8,AAGTTCACGTGGATTG,0.24
9,CTTGGCACGTGGGAGA,-0.14
10,TGAGCCACGTGGGTTT,-0.08
11,TATAACACGTGGTGTC,-0.16
12,AGAACCACGTGGTGGG,-0.21
13,TCTTTCACGTGGGAAT,0.26
14,GGATTCACGTGATCGG,0.38
15,CGTGCCACGTGGTAGG,-0.24
16,ATAATCACGTGCGTTT,0.15
17,TGGGGCACGTGATATC,-0.08
18,GCGGTCACGTGATGAG,0.24
19,TTGATCACGTGAATGG,0.44
20,GATTTCACGTGTGCGA,0.38
21,GGTAACACGTGCGTGG,-0.01
22,AAGGCCACGTGGGTGT,-0.3
23,GGTTGCACGTGACGGA,0.22

row,Sequence,relative binding free energy [kcal/mol]
1,TGGTGCACGTGATAGG,0.02
2,AGAGGCACGTGTGTCG,-0.05
3,ATATGCACGTGGTACT,-0.15
4,AGTTCCACGTGTAATG,0.21
5,ATTATCACGTGTAGTG,0.13
6,GTACACACGTGGGGAT,0.05
7,GGGTTCACGTGGGTTG,0.23
8,GGTGTCACGTGGACAG,0.15
9,CTAGTCACGTGGGCGG,-0.02
10,TCTGACACGTGGAGGT,0.01
11,GCTGACACGTGATGGT,0.24
12,TTTTCCACGTGATATA,0.14
13,GTATACACGTGGCGAG,0.06
14,TGGTTCACGTGAATGG,0.4
15,TTATGCACGTGCGTCG,-0.11
16,GCATTCACGTGTTAGG,0.16
17,AGGTTCACGTGAGGCA,0.33
18,AGTTACACGTGCATAT,0.16
19,GAGTGCACGTGTGGAG,-0.05
20,TTAAACACGTGTGAGA,0.1
21,GGGTCCACGTGAAGTG,0.19
22,GCGTTCACGTGAGAGG,0.48
23,AGTTTCACGTGGACGG,0.18

row,Sequence,relative binding free energy [kcal/mol]
1,GATTACACGTGATATG,0.22
2,TTATTCACGTGTTGAC,0.31
3,TACTACACGTGGGTTT,-0.05
4,TGTTACACGTGAATAG,0.22
5,TTTAGCACGTGAGTAT,0.08
6,GTTTGCACGTGATAAA,0.21
7,GTTAGCACGTGGGATC,0.04
8,ATCGGCACGTGAGTGG,0
9,TTGTTCACGTGTGGCC,0.26
10,TGGGCCACGTGAAGAG,0.04
11,AAGTACACGTGTAGAG,0.05
12,TTATTCACGTGAAGGG,0.36
13,TGTCGCACGTGAGGCG,0.22
14,TTGTCCACGTGGTAGG,0
15,GCGGACACGTGGGCGT,0.02
16,AGAAGCACGTGTGGAG,0.05
17,GTCTTCACGTGATAGT,0.34
18,TTGTTCACGTGCTAGA,0.21
19,GATTTCACGTGGGGAA,0.2
20,TGCTGCACGTGAAGTT,0.2
21,CGTTGCACGTGGTGGA,-0.1
22,AAGTTCACGTGTGTAA,0.25
23,GGGTACACGTGAGTAT,0.33

row,Sequence,relative binding free energy [kcal/mol]
1,AAATCCACGTGTGTGG,0.25
2,GCGATCACGTGTTTTT,0.36
3,GTAATCACGTGAGGTT,0.27
4,TATGTCACGTGATGAT,0.11
5,TAACGCACGTGTGTAG,-0.02
6,GTAGGCACGTGTCGTT,-0.1
7,GGTTTCACGTGCGAGT,0.38
8,TGAATCACGTGTTAAG,0.11
9,ACAGTCACGTGGAAGG,0.15
10,TGTTTCACGTGTCGGT,0.37
11,ATTGTCACGTGTGGTG,0.23
12,AGACGCACGTGATGTG,-0.12
13,GTGGACACGTGATCGG,0
14,TTTTGCACGTGGTCGC,-0.19
15,ATTTGCACGTGAGCTG,0.14
16,AATGACACGTGATGTA,0.04
17,CGGGCCACGTGGGGCG,-0.24
18,GAGGACACGTGTATGG,-0.09
19,GGGGGCACGTGCCAAG,-0.18
20,TGTTGCACGTGGTGAT,0.03
21,ATCTGCACGTGTTGAT,0.06
22,ATTATCACGTGTTTAC,0.14
23,GGGAGCACGTGAGTAG,0.18

row,Sequence,relative binding free energy [kcal/mol]
1,AGAAACACGTGGAAGT,0.24
2,ATTAACACGTGATATT,0.1
3,AGGAACACGTGGCTTT,0.12
4,GGTGTCACGTGTTGTC,0.18
5,GTGTGCACGTGCGCAT,-0.1
6,GTTCACACGTGTAGGT,0.17
7,TAAGGCACGTGATATG,-0.01
8,AGAGTCACGTGTTGGA,0.04
9,AGCGGCACGTGAGCGG,-0.14
10,TGGGGCACGTGGGTTT,-0.19
11,GGTGGCACGTGTGGGG,0
12,GGGTTCACGTGCTCTT,0.29
13,GAAGGCACGTGTTGAG,0.03
14,AGAGGCACGTGTAGCG,-0.04
15,GAGGTCACGTGAGTTG,0.28
16,GCGTGCACGTGTGGTA,-0.01
17,TTTTTCACGTGAGATC,0.38
18,TAGCGCACGTGTCGGT,-0.04
19,GTTAGCACGTGATTTG,0.17
20,GTCCGCACGTGGGGCG,-0.21
21,GTCATCACGTGAGGGT,0.38
22,GTCTTCACGTGTGTTA,0.24
23,GGTAGCACGTGTATAT,0
